Experimental findings from ChEMBL document CHEMBL4888484, “Replenishing the malaria drug discovery pipeline: Screening and hit evaluation of the MMV Hit Generation Library 1 (HGL1) against asexual blood stage Plasmodium falciparum ,using a nano luciferase reporter read-out” (2022) are described below.

In all, about 150,000 compounds went through this assay and about 540 (0.36%) showed an effect of 50% or more. The list shows a part of the results.

For this experiment, the system named is Plasmodium falciparum. The experiment can be described thus: Primary screen in NF54 nanoGlo assay, in single point, at 2uM, 72h; a lower Z score goes with more inhibition. It is filed as functional, Erythrocyte. The settings on record: timepoint 72 hour.
Take `CC1CCCC(OCC(=O)NC(C)CN2CCOC2=O)C1` (centres undefined): the “% Inhibition” value is given as -3% and the Z score is given as 0.22.
For `CN1C(=O)CN(C(=O)[C@@H](c2ccccc2)C2CC2)c2ccccc21` the same measures were -1% and 0.13.
As for `O=C(NC[C@H]1CCN1C1CCOCC1)c1cc(C2CCCCC2)n[nH]1`, the “% Inhibition” value stood at 3% and the Z score was -0.55.
For `Cc1cccn(CC2CC(F)(F)C2)c1=O` the same measures were -3% and 0.37.
Turning to `COc1ccc2c(c1)C(N1CCN(S(=O)(=O)c3ccc(F)cc3)CC1)=Nc1ccc(C)cc1O2`, the “% Inhibition” value turned out to be 19% and the Z score is recorded as -2.35.
On to `CO[C@@H]1CN[C@@H](C(=O)Nc2ccc3c(ccn3CC(C)C)c2)C1`, for which the “% Inhibition” value was determined as 3% and the Z score was -0.5.
The matching figures for `C[C@H](NC(=O)N1CCC(n2cc(-c3cccnc3)nn2)CC1)c1ccccc1`: -5% and 1.04.
The matching figures for `Cc1cc(NC(=O)C(=O)NC2CC(C)CC(C)(C)C2)n(-c2nc3c(c(=O)[nH]2)CCC3)n1` (centres undefined): 85% and -13.4.
As for `CCn1cnc2c1CCN(C(=O)c1nsc3ccc(C)cc13)C2`, the “% Inhibition” value is given as -13% and the Z score was determined as 1.48.
For `CC(=O)Nc1ccc2nc(NC(=O)C3CCCC3)sc2c1` the same measures were 1% and -0.11.
Regarding `Cc1c(Cl)cncc1NC(=O)CC1CC2CCC1O2` (centres undefined), the “% Inhibition” value is on record as -1% and the Z score is listed as 0.2.
For `COc1ccc(-c2cn3cc(C(=O)N[C@@H](C)CO)nc3c(=O)n2CC2CC2)cc1` the same measures were -6% and 0.76.
With `O=C(Nc1ccccn1)c1cnn(Cc2ccccc2)c1`, the “% Inhibition” value is -5% and the Z score is on record as 0.62.
For `COC1CCCC1NC(=O)Nc1ncc(Br)cc1C` (centres undefined) the same measures were 74% and -9.34.
The matching figures for `Cc1cc2c(cc1NC(=O)Nc1ccc3c(c1)OCO3)N(C)S(=O)(=O)N2C`: 7% and -1.06.
As to `CCCS(=O)(=O)N1CC(n2cc(C(=O)NCc3ccncc3)nn2)C1`, the “% Inhibition” value is -8% and the Z score is 1.63.
The matching figures for `c1cn([C@H]2CCCN(CC3CC4(CCC4)C3)C2)cn1`: 6% and -0.61.
For `O=C(C[C@@H]1C=CCC1)Nc1ccc2c(c1)CCC(=O)N2` the same measures were -11% and 1.64.
In the case of `CC(C)N1CC2(CCN(C(=O)OC(C)(C)C)CC2)OC(=O)C1=O`, the “% Inhibition” value is given as -6% and the Z score amounted to 0.75.
For `CCCNC(=O)CCC(=O)N1CCCn2nc(-c3cccn3C)cc21` the same measures were 3% and -0.36.
The matching figures for `CC(C)(C)OC(=O)N1CC(OCC(=O)N(Cc2ccncc2)C2CC2)C1`: -14% and 1.84.
Turning to `Cc1n[nH]c(C)c1CCc1nc(C2CC2)nn1Cc1c(F)cccc1Cl`, the “% Inhibition” value was -23% and the Z score is listed as 2.2.
The matching figures for `CC[C@H](OC1CCCCC1)C(=O)NCc1noc(-c2ccsc2)n1`: 31% and -3.54.
With `COc1ccc(-c2cc(C(=O)Nc3cc(C)on3)c3ccccc3n2)c(OC)c1`, the “% Inhibition” value is 1% and the Z score is reported as -0.16.
For `CCc1ccc(NC(=O)CN2CCc3c(c(=O)c4cc(C)ccc4n3C)C2)cc1` the same measures were -3% and 0.29.
The matching figures for `CCN1CCCC[C@@H]1CNc1nc(C)ns1`: -7% and 1.35.
For `O=C(c1cnn(Cc2ccccc2)c1)N1CCC[C@@H]1CO`, the “% Inhibition” value came to 5% and the Z score is -0.66.
The matching figures for `CCc1nccn1-c1ncnc2ccccc12`: 2% and -0.27.
On to `CN1CCN(C(=O)c2cccc(-c3ccc(C#N)cc3)c2)C[C@@H]1CCO`, for which the “% Inhibition” value is on record as -8% and the Z score is given as 1.17.
`Cc1nc(-c2cccn2C2CC2)n(-c2ccncc2)n1`: the “% Inhibition” value was -11% and the Z score is reported as 2.14.
Regarding `CNC(=O)[C@@H]1CN(Cc2ccc(N3CCCCC3)c(C)c2)CCO1`, the “% Inhibition” value is listed as -13% and the Z score came out at 1.45.
As to `Clc1cncnc1NCCCNc1ncncc1Cl`, the “% Inhibition” value is reported as -4% and the Z score amounted to 0.4.
For `Cc1cc(NC(=O)Cn2nc(-c3cccc4cccnc34)c3ccccc32)n(C)n1` the same measures were -7% and 0.95.
On to `CCCCS(=O)(=O)N1CCC[C@H](Oc2nc(C3CC3)nc3c2CCOCC3)C1`, for which the “% Inhibition” value is recorded as -2% and the Z score was 0.4.
The matching figures for `N#Cc1cc(F)cc(F)c1Br`: -6% and 0.95.
For the compound `O=C(NCc1c(F)cccc1Cl)c1ccc(-c2ccc3c(c2)OCCO3)s1`, the “% Inhibition” value is -16% and the Z score is on record as 1.42.
In the case of `COc1ccnc(NCCCNc2nccc(OC)n2)n1`, the “% Inhibition” value is -4% and the Z score came to 0.53.
The matching figures for `Cc1cc(Cl)ccc1NC(=O)N1CCC[C@H]1c1nnc2n1CCN(C)CC2`: 30% and -3.99.
The matching figures for `CC1CN(C(=O)Cn2cc(NC(=O)NC3CC=CCC3)cn2)CC(C)O1` (centres undefined): -11% and 1.76.
Turning to `CC1(C)CCC(c2nc(C3(S(C)(=O)=O)CCOCC3)no2)CC1`, the “% Inhibition” value was -5% and the Z score is reported as 0.82.
For `Cc1cc(NC(=O)NC2(c3ccc(C#N)cc3)CCOCC2)c2ccccc2c1` the same measures were -9% and 1.54.
`Cc1ccc2c(c1)CCCN2C(=O)[C@H]1CCS(=O)(=O)C1`: the “% Inhibition” value is recorded as -3% and the Z score is reported as 0.23.
With `O=C1CN(C(=O)c2cscn2)CCN1Cc1ccc2c(c1)OCO2`, the “% Inhibition” value is reported as -11% and the Z score is recorded as 1.65.
Take `c1ccc(-n2nnnc2CN2CCn3ccnc3C2)cc1`: the “% Inhibition” value was -5% and the Z score is listed as 1.06.
Regarding `Cc1csc([C@H](C)NC(=O)N(Cc2ccccc2)CC(C)(C)O)n1`, the “% Inhibition” value was -5% and the Z score is on record as 0.6.
For the compound `c1cnc(-c2nccn2CCO[C@@H]2CCCCO2)cn1`, the “% Inhibition” value is 5% and the Z score is reported as -0.59.
For `CCN1CCN(C(=O)C2(COC)CCC2)CC1(C)C` the same measures were -7% and 1.1.
For `CCN1CCC2C(C1)OCCN2C(=O)[C@H](OC)c1ccccc1` (some centres undefined) the same measures were -2% and 0.37.
Regarding `COc1cc(CN(C)Cc2cn(C)nc2C)ccc1OC[C@@H](O)CN1CCOCC1`, the “% Inhibition” value is recorded as -11% and the Z score worked out at 1.66.
The matching figures for `CN(Cc1ccccc1)Cc1cncc(-c2ccc(F)cc2F)c1`: 5% and -0.48.
In the case of `CC(NC(=O)C1C(C)C=CC2C(=O)N(C)C(=O)C21)c1ccc(F)c(F)c1` (centres undefined), the “% Inhibition” value was -3% and the Z score came out at 0.58.
With `CC(=O)Nc1ccc(NC(=O)CCc2ccc3nc(NC(C)=O)sc3c2)cc1`, the “% Inhibition” value is -15% and the Z score is recorded as 1.53.
As to `Cn1cc(S(=O)(=O)NC(=O)C2=CCCCC2)c2ccccc21`, the “% Inhibition” value was -5% and the Z score is 0.8.
For `CCN(CC)c1onc(-c2ccccc2)c1CN(C(=O)c1ccccc1C)C(C)C`, the “% Inhibition” value stood at 4% and the Z score is -0.56.
Consider `COC1(CNC(=O)c2cnc(OC(C)C)c(Cl)c2)CCOCC1`, for which the “% Inhibition” value is -12% and the Z score is 1.18.
`COc1ccc(CN2C[C@H]3CCC[C@@H](O)[C@H]3C2)cc1Cn1cccn1`: the “% Inhibition” value is given as -1% and the Z score was 0.06.
Turning to `CC1=C(C(=O)Nc2ccccc2)[C@H](c2cccc(O)c2)n2nc(-c3ccc(Cl)cc3)nc2N1`, the “% Inhibition” value was -5% and the Z score is reported as 0.6.
With `O=C1O[C@H]2CCCCCC2=NN1c1ccc(Cl)cc1`, the “% Inhibition” value was -16% and the Z score is 1.87.
For the compound `COc1ccc(C(=O)NC2Cc3ccccc3C2)o1`, the “% Inhibition” value is reported as -4% and the Z score is on record as 0.47.
For `COC[C@H](C)NC(=O)COc1ccc(OC)cc1C(=O)OC` the same measures were -5% and 0.77.
With `Cc1c(CNC2C[C@@H]3CCCC[C@H]23)cnn1C` (some centres undefined), the “% Inhibition” value is -9% and the Z score worked out at 0.97.
As to `O=C(Cn1nc(C(F)F)c2c1CCC2)N1CCc2ccccc21`, the “% Inhibition” value is reported as -1% and the Z score was found to be 0.14.
For `Cc1[nH][nH]c(=O)c1CC(=O)NCC[C@H]1CCCOC1` the same measures were -1% and 0.15.
Take `Cc1cc(C)nc(NC(=O)N2CCCC2)c1`: the “% Inhibition” value is reported as -4% and the Z score came to 0.51.
As for `CCNC(=O)[C@H]1Cc2ccccc2CN1Cc1ccncc1F`, the “% Inhibition” value was determined as 1% and the Z score is -0.24.
For the compound `Cn1cc([C@H](NC(=O)CCc2ccncn2)c2ccccc2)cn1`, the “% Inhibition” value worked out at 1% and the Z score was -0.19.
The matching figures for `CN(C)c1ccc(NC(=O)CCn2ccc(=O)[nH]c2=O)cc1`: -4% and 0.45.
`O=C(Nc1nc2cc3c(cc2s1)OCCCO3)c1cc(Br)ccc1Cl`: the “% Inhibition” value is recorded as 14% and the Z score is listed as -1.88.
The matching figures for `CCC(CC)C(=O)N1CC[C@H]2CC(=O)Nc3ccc(-c4cnn(C)c4)cc3OCC[C@H]2C1`: -11% and 1.71.
For `COc1cccc(CN(C(=O)NCc2ccccc2)C2CCC(O)CC2)c1` (centres undefined) the same measures were -12% and 1.26.
For `C[C@H]1c2ccccc2CCN1C(=O)c1cn(Cc2cccs2)nn1` the same measures were -38% and 4.47.
`COc1cccc(S(=O)(=O)N2CCCC[C@H]2c2nnc(-c3ccccc3)[nH]2)c1`: the “% Inhibition” value is -7% and the Z score was 1.31.
For `Cc1ccc(NC(=O)N2CCC[C@H](Cn3cnc4cccnc43)C2)c(Cl)c1` the same measures were -4% and 0.66.
`N#Cc1c(NC(=O)CN2C(=O)CCC2=O)sc2c1CCCC2`: the “% Inhibition” value is recorded as -9% and the Z score worked out at 1.56.
As for `CN(CC(F)(F)F)C(=O)c1ccc[nH]1`, the “% Inhibition” value is listed as 4% and the Z score is listed as -0.5.
The matching figures for `O=S(=O)(c1cccs1)N(CCO)CCO`: -2% and 0.27.
On to `C#CCCCCC(=O)Nc1ccc(C#N)cn1`, for which the “% Inhibition” value is 4% and the Z score was -0.84.
The matching figures for `CCCCOCC(=O)N1CCC[C@H](c2cc(N3CCOCC3)ncn2)C1`: 4% and -0.77.
As to `CCC[C@H]1CN(c2ncnc3[nH]ccc23)C[C@@H]1C(=O)O`, the “% Inhibition” value is listed as -5% and the Z score was 1.06.
Regarding `Cc1ccsc1CNc1nc2ccccc2o1`, the “% Inhibition” value is on record as -12% and the Z score is given as 1.56.
For `COCC1(CNC(=O)C2CCCCCC2)CCC1` the same measures were -2% and 0.27.
With `Cc1cc(C)c(C#N)c(N2C[C@@H](CN3CCCCC3)[C@@H](CO)C2)n1`, the “% Inhibition” value is listed as -13% and the Z score was 1.18.
`O=S(=O)(CCN1CCOc2ccccc21)c1ccccc1`: the “% Inhibition” value is -9% and the Z score is 0.97.
For `CCN(CC)S(=O)(=O)c1ccc(Cl)c(S(=O)(=O)Nc2ncccn2)c1` the same measures were -10% and 0.98.
For `CC(C)(NCc1ccccc1Cl)C(=O)O` the same measures were 36% and -1.19.
Turning to `CCOC1CC(O)(CNC(=O)Nc2cccnc2)C1` (centres undefined), the “% Inhibition” value is listed as 3% and the Z score is on record as -0.46.
For the compound `CC(C)Cn1cc(S(=O)(=O)Nc2cccc(C#N)c2)c2cccnc21`, the “% Inhibition” value was 3% and the Z score is -0.49.
